The list shows a part of the results. Repeats are few or missing, and single values can be far off.
System: RPMI7951
Test: cell count relative to DMSO control; melanoma cells; higher = more viable cells
Conditions: library dose: low library concentration; 72 h
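Also: cell number obtained by counting DAPI-stained nuclei in high-throughput microscope images with image analysis software, screen run in 1,536-well plates.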

Structure (SMILES)	cell count [%]
Nc1ccn([C@@H]2O[C@H](CO)[C@@H](O)C2(F)F)c(=O)n1 [gemcitabine] + O=C1NC(=O)/C(=C/c2ccc(-c3ccc(F)cc3O)o2)S1 [AS252424] (first compound 0.0004 µM, partner dose 1 µM)	93.6
Nc1ccn([C@@H]2O[C@H](CO)[C@@H](O)C2(F)F)c(=O)n1 [gemcitabine] + CC1(C)NC(=O)N(c2ccc([N+](=O)[O-])c(C(F)(F)F)c2)C1=O [nilutamide] (first compound 0.0004 µM, partner dose 1 µM)	103
Nc1ncn([C@H]2C[C@H](O)[C@@H](CO)O2)c(=O)n1 [decitabine] + NCC(=O)Nc1ccc(-n2nc(C(F)(F)F)cc2-c2ccc3c(ccc4ccccc43)c2)cc1 [OSU03012] (first compound 0.1 µM, partner dose 1 µM)	97.2
Nc1ccn([C@@H]2O[C@H](CO)[C@@H](O)C2(F)F)c(=O)n1 [gemcitabine] + CC(C)CCN1c2nc(Nc3cc(F)c(O)c(F)c3)ncc2N(C)C(=O)C1C [BID1870] (first compound 0.0004 µM, partner dose 0.2 µM)	114
CC(=O)c1c(C)c2cnc(Nc3ccc(N4CCNCC4)cn3)nc2n(C2CCCC2)c1=O [palbociclib] + COc1cc2c(Oc3ccc4[nH]c(C)cc4c3F)ncnc2cc1OCCCN1CCCC1 [cediranib] (first compound 0.04 µM, partner dose 0.4 µM)	89.4
Nc1nc(F)nc2c1ncn2[C@@H]1O[C@H](CO)[C@@H](O)[C@@H]1O [fludarabine] + O=C(O)C(=O)Nc1sc2c(c1C(=O)O)CCNC2 [TCS401] (first compound 0.2 µM, partner dose 1.66667 µM)	104
CC(=O)c1c(C)c2cnc(Nc3ccc(N4CCNCC4)cn3)nc2n(C2CCCC2)c1=O [palbociclib] + Cn1cc(/C=C2\C(=O)Nc3cccnc32)c2ccccc21 [GW441756] (first compound 0.04 µM, partner dose 0.4 µM)	76.5
Nc1ccn([C@@H]2O[C@H](CO)[C@@H](O)C2(F)F)c(=O)n1 [gemcitabine] + Oc1nc(-c2ccc(C(F)(F)F)cc2)nc2c1CSCC2 [XAV939] (first compound 0.0004 µM, partner dose 2 µM)	90.6
CC(=O)O[C@@]12CO[C@@H]1C[C@H](O)[C@@]1(C)C(=O)[C@H](O)C3=C(C)[C@@H](OC(=O)[C@H](O)[C@@H](NC(=O)OC(C)(C)C)c4ccccc4)C[C@@](O)([C@@H](OC(=O)c4ccccc4)[C@H]21)C3(C)C [Docetaxel] + Cn1c(=O)n(-c2ccc(C(C)(C)C#N)cc2)c2c3cc(-c4cnc5ccccc5c4)ccc3ncc21 [NVP-BEZ235] (first compound 0.0001 µM, partner dose 0.004 µM)	36.8
CC(=O)c1c(C)c2cnc(Nc3ccc(N4CCNCC4)cn3)nc2n(C2CCCC2)c1=O [palbociclib] + Cc1cc([N+](=O)[O-])ccc1NS(=O)(=O)c1cc(Cl)ccc1Cl [FH535] (first compound 0.04 µM, partner dose 1 µM)	72.5
CC(=O)O[C@@]12CO[C@@H]1C[C@H](O)[C@@]1(C)C(=O)[C@H](O)C3=C(C)[C@@H](OC(=O)[C@H](O)[C@@H](NC(=O)OC(C)(C)C)c4ccccc4)C[C@@](O)([C@@H](OC(=O)c4ccccc4)[C@H]21)C3(C)C [Docetaxel] + N#Cc1c(O)c2c(-c3ccc(-c4ccccc4O)cc3)csc2[nH]c1=O [A769662] (first compound 0.0001 µM, partner dose 2 µM)	48.2
CC(=O)O[C@@]12CO[C@@H]1C[C@H](O)[C@@]1(C)C(=O)[C@H](O)C3=C(C)[C@@H](OC(=O)[C@H](O)[C@@H](NC(=O)OC(C)(C)C)c4ccccc4)C[C@@](O)([C@@H](OC(=O)c4ccccc4)[C@H]21)C3(C)C [Docetaxel] + CN(C)S(=O)(=O)c1ccc2c(c1)/C(=C/c1cc3c([nH]1)CCCC3)C(=O)N2 [SU6656] (first compound 0.0001 µM, partner dose 0.4 µM)	26.5
Nc1ncn([C@H]2C[C@H](O)[C@@H](CO)O2)c(=O)n1 [decitabine] + CN(NC(=O)CC(=O)NN(C)C(=S)c1ccccc1)C(=S)c1ccccc1 [STA4783] (first compound 0.1 µM, partner dose 0.006 µM)	71.9
CC(=O)c1c(C)c2cnc(Nc3ccc(N4CCNCC4)cn3)nc2n(C2CCCC2)c1=O [palbociclib] + NCC(=O)Nc1ccc(-n2nc(C(F)(F)F)cc2-c2ccc3c(ccc4ccccc43)c2)cc1 [OSU03012] (first compound 0.04 µM, partner dose 1 µM)	73
CC(=O)O[C@@]12CO[C@@H]1C[C@H](O)[C@@]1(C)C(=O)[C@H](O)C3=C(C)[C@@H](OC(=O)[C@H](O)[C@@H](NC(=O)OC(C)(C)C)c4ccccc4)C[C@@](O)([C@@H](OC(=O)c4ccccc4)[C@H]21)C3(C)C [Docetaxel] + CC(C)CCN1c2nc(Nc3cc(F)c(O)c(F)c3)ncc2N(C)C(=O)C1C [BID1870] (first compound 0.0001 µM, partner dose 0.2 µM)	35.6
CC(=O)c1c(C)c2cnc(Nc3ccc(N4CCNCC4)cn3)nc2n(C2CCCC2)c1=O [palbociclib] + O=C(CCCCCCC(=O)Nc1ccccc1)NO [vorinostat] (first compound 0.04 µM, partner dose 0.08 µM)	83.1
CC(=O)c1c(C)c2cnc(Nc3ccc(N4CCNCC4)cn3)nc2n(C2CCCC2)c1=O [palbociclib] + CC1(C)NC(=O)N(c2ccc([N+](=O)[O-])c(C(F)(F)F)c2)C1=O [nilutamide] (first compound 0.04 µM, partner dose 1 µM)	80.9
Nc1ncn([C@H]2C[C@H](O)[C@@H](CO)O2)c(=O)n1 [decitabine] + O=C(O)c1ccc(-c2c[nH]c3ncc(-c4ccccc4)cc23)cc1C1CCCC1 [GSK650394] (first compound 0.1 µM, partner dose 0.16 µM)	79.9
CC(=O)O[C@@]12CO[C@@H]1C[C@H](O)[C@@]1(C)C(=O)[C@H](O)C3=C(C)[C@@H](OC(=O)[C@H](O)[C@@H](NC(=O)OC(C)(C)C)c4ccccc4)C[C@@](O)([C@@H](OC(=O)c4ccccc4)[C@H]21)C3(C)C [Docetaxel] + C=CCn1c(=O)c2cnc(Nc3ccc(N4CCN(C)CC4)cc3)nc2n1-c1cccc(C(C)(C)O)n1 [MK1775] (first compound 0.0001 µM, partner dose 0.02 µM)	29.7
Nc1nc(F)nc2c1ncn2[C@@H]1O[C@H](CO)[C@@H](O)[C@@H]1O [fludarabine] + Cc1cc([N+](=O)[O-])ccc1NS(=O)(=O)c1cc(Cl)ccc1Cl [FH535] (first compound 0.2 µM, partner dose 1 µM)	95.6
CC(=O)O[C@@]12CO[C@@H]1C[C@H](O)[C@@]1(C)C(=O)[C@H](O)C3=C(C)[C@@H](OC(=O)[C@H](O)[C@@H](NC(=O)OC(C)(C)C)c4ccccc4)C[C@@](O)([C@@H](OC(=O)c4ccccc4)[C@H]21)C3(C)C [Docetaxel] + O=S(=O)(c1ccccc1)N(CC(F)(F)F)c1ccc(C(O)(C(F)(F)F)C(F)(F)F)cc1 [T0901317] (first compound 0.0001 µM, partner dose 1.4 µM)	48.7
CC(=O)c1c(C)c2cnc(Nc3ccc(N4CCNCC4)cn3)nc2n(C2CCCC2)c1=O [palbociclib] + CC(C)(C)c1cnc(CSc2cnc(NC(=O)C3CCNCC3)s2)o1 [SNS-032] (first compound 0.04 µM, partner dose 0.01 µM)	90.9
CC(=O)O[C@@]12CO[C@@H]1C[C@H](O)[C@@]1(C)C(=O)[C@H](O)C3=C(C)[C@@H](OC(=O)[C@H](O)[C@@H](NC(=O)OC(C)(C)C)c4ccccc4)C[C@@](O)([C@@H](OC(=O)c4ccccc4)[C@H]21)C3(C)C [Docetaxel] + CO[C@@H]1[C@H](N(C)C(=O)c2ccccc2)C[C@H]2O[C@]1(C)n1c3ccccc3c3c4c(c5c6ccccc6n2c5c31)C(=O)NC4 [Midostaurin] (first compound 0.0001 µM, partner dose 0.08 µM)	30.1
Nc1nc(F)nc2c1ncn2[C@@H]1O[C@H](CO)[C@@H](O)[C@@H]1O [fludarabine] + COc1ccc2c(c1)CCC1C2CCC2(C)C(NCCCCCCN3C(=O)C=CC3=O)CCC12 [U73122] (first compound 0.2 µM, partner dose 0.4 µM)	74.6
CC(=O)c1c(C)c2cnc(Nc3ccc(N4CCNCC4)cn3)nc2n(C2CCCC2)c1=O [palbociclib] + Cn1c(Nc2ccc(C(F)(F)F)cc2)nc2cc(Oc3ccnc(-c4ncc(C(F)(F)F)[nH]4)c3)ccc21 [CHIR265] (first compound 0.04 µM, partner dose 0.08 µM)	47.8
Nc1ccn([C@@H]2O[C@H](CO)[C@@H](O)C2(F)F)c(=O)n1 [gemcitabine] + O=c1cc(-c2cccc3c2Sc2ccccc2S3)oc(N2CCOCC2)c1 [KU55933] (first compound 0.0004 µM, partner dose 1 µM)	96.4

From the supplement of paper PMC4604168 (melanoma cell lines)
